IC50 data for 6 compounds are collected here from article PMC6616073 (Frontiers in Pharmacology, 2019).

Like-named read-outs stand apart in the source and are kept apart here. Positions of bridges follow the written chain, without caps; N, C: chain ends. Residues, ends and D or L forms follow the SMILES beside them.

For the assay, the target named is LBD of the human nAChR α9 subunit (Homo sapiens, UniProt Q9UGM1). Description: biochemical.
Setting [1] is: […], 100 nM human α9 LBD, Ni2+-NTA agarose beads, mean (95% CI), three to four independent experiments, read-out: IC50, μM (95%CI) α9 LBD.

A word on the IC50: it is the concentration needed to halve the response being measured. `CSCC[C@@H]1NC(=O)[C@H](CCCNC(=N)N)NC(=O)[C@H]([C@@H](C)O)NC(=O)[C@@H]2CCCN2C(=O)[C@H]([C@@H](C)O)NC(=O)[C@H](Cc2ccc(O)cc2)NC(=O)[C@H](Cc2ccc(O)cc2)NC(=O)[C@H]([C@@H](C)O)NC(=O)[C@H](CCCNC(=N)N)NC(=O)[C@H]([C@@H](C)O)NC(=O)[C@H]([C@@H](C)O)NC(=O)[C@@H](N)CSSC[C@@H](C(=O)O)NC(=O)[C@H](CCCCN)NC(=O)[C@H](CO)NC(=O)[C@H](C(C)C)NC(=O)[C@H](CCCCN)NC1=O` [Lynx1 (1)] (H-CTTRTYYTPTRMKVSKC-OH; disulfide 1-17) showed an IC50 of 41.7 µM. On to `CSCC[C@@H]1NC(=O)[C@H](CCCNC(=N)N)NC(=O)[C@H]([C@@H](C)O)NC(=O)[C@@H]2CCCN2C(=O)[C@H]([C@@H](C)O)NC(=O)[C@H](Cc2ccc(O)cc2)NC(=O)[C@H](Cc2ccc(O)cc2)NC(=O)[C@H]([C@@H](C)O)NC(=O)[C@H](CCCNC(=N)N)NC(=O)[C@H]([C@@H](C)O)NC(=O)[C@@H](N)CSSC[C@@H](C(=O)O)NC1=O` [Lynx1 short (3)] (H-CTRTYYTPTRMC-OH; disulfide 1-12), for which the IC50 under setting [1] is above 100 µM. Take `CSCC[C@H](NC(=O)[C@H](CCCNC(=N)N)NC(=O)[C@@H](NC(=O)[C@@H]1CCCN1C(=O)[C@@H](NC(=O)[C@H](Cc1ccc(O)cc1)NC(=O)[C@H](Cc1ccc(O)cc1)NC(=O)[C@@H](NC(=O)[C@H](CCCNC(=N)N)NC(=O)[C@@H](NC(=O)[C@@H](N)CS)[C@@H](C)O)[C@@H](C)O)[C@@H](C)O)[C@@H](C)O)C(=O)N[C@@H](CS)C(=O)O` [Lynx1 short linear (4)] (H-CTRTYYTPTRMC-OH): under setting [1], the IC50 turned out to be 70.8 µM.

Regarding `CC(C)C[C@@H]1NC(=O)[C@H]([C@@H](C)O)NC(=O)[C@@H](N)CSSC[C@@H](C(=O)O)NC(=O)[C@H]([C@@H](C)O)NC(=O)[C@H](C(C)C)NC(=O)[C@H](C(C)C)NC(=O)[C@@H]2CCCN2C(=O)[C@H](CO)NC(=O)[C@H](CCC(N)=O)NC(=O)[C@H](CC(N)=O)NC(=O)[C@H](Cc2ccccc2)NC(=O)[C@@H]2CCCN2C(=O)[C@H](Cc2ccc(O)cc2)NC(=O)[C@H](CCC(=O)O)NC(=O)[C@H](C)NC(=O)[C@H](CCC(=O)O)NC(=O)[C@H](C(C)C)NC(=O)[C@H]([C@@H](C)O)NC(=O)[C@H](C(C)C)NC1=O` [SLURP1 (6)] (H-CTLVTVEAEYPFNQSPVVTC-OH; disulfide 1-20; N-terminus assumed), the IC50 was above 300 µM. `CC(C)C[C@@H]1NC(=O)[C@H](C(C)C)NC(=O)[C@H](CCCNC(=N)N)NC(=O)[C@H]([C@@H](C)O)NC(=O)[C@H](C)NC(=O)[C@H]([C@@H](C)O)NC(=O)[C@@H](N)CSSC[C@@H](C(=O)O)NC(=O)[C@H]([C@@H](C)O)NC(=O)[C@H](C(C)C)NC(=O)[C@H](CC(C)C)NC(=O)[C@@H]2CCCN2C(=O)[C@H](CC(C)C)NC(=O)[C@H](CC(=O)O)NC(=O)[C@H](CCC(=O)O)NC(=O)[C@H]([C@@H](C)O)NC(=O)[C@H](CC(N)=O)NC(=O)[C@H](CO)NC1=O` [SLURP2 (7)] (H-CTATRVLSNTEDLPLVTC-OH; disulfide 1-18; N-terminus assumed): the IC50 is around 400 µM.

Turning to `CSCC[C@@H]1NC(=O)[C@H](CCCNC(=N)N)NC(=O)[C@H](CCCNC(=N)N)NC(=O)[C@H](C(C)C)NC(=O)[C@H](C(C)C)NC(=O)[C@H](CCC(=O)O)NC(=O)[C@H](Cc2ccc(O)cc2)NC(=O)[C@@H]2CCCN2C(=O)[C@H](CO)NC(=O)[C@H](CCCNC(=N)N)NC(=O)[C@H](CCC(N)=O)NC(=O)[C@H](Cc2c[nH]cn2)NC(=O)[C@H](CCCNC(=N)N)NC(=O)[C@H](C(C)C)NC(=O)[C@H](CCSC)NC(=O)[C@H](CCCCN)NC(=O)[C@@H](N)CSSC[C@@H](C(=O)O)NC1=O` [SSS (5)] (H-CKMVRHQRSPYEVVRRMC-OH; disulfide 1-18; N-terminus assumed), the IC50 is 41.7 µM.
